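1) Cells in 96-well plates. 2) Compound, 48 h, 5 concentrations. 3) Linear interpolation between surrounding doses. 4) Unreached endpoint = highest concentration. Abbreviation: GI50, concentration required for 50% inhibition of growth.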 The source made the active and inactive calls. No stated cut-off is given here; in the data, active = GI50 up to about 1.1 µM and inactive = higher.
Tested on: NCI-H322M
Experiment: NCI anticancer screen, dose series, 48 h

| SMILES | GI50 |
| --- | --- |
| O=C(Oc1ccccc1)c1cc2cc(CCl)ccc2oc1=O | inactive: 54.5 µM |
| O=C(/C=C/c1ccccc1O)c1ccccc1O | inactive: > 100 µM |
| CCSC1=C(C#N)C2(CCCCC2)C2=C(O)CC(C)(C)CC2=N1 | inactive: 23.2 µM |
| N#CCc1nc(-c2cc3ccccc3oc2=O)cs1 | inactive: > 100 µM |
| CCC(=O)OC1CCn2c1nc1c2C(=O)C(C)=C(N2CC2)C1=O (stereo not drawn) | active: 0.27 µM |
| Cc1ccc2c(c1)S(=O)(=O)c1ccc3ccccc3c1N2 | inactive: > 100 µM |
| CCCCCCCCCCCCC/C=C1\C[C@H](O)COC1=O | inactive: 16.5 µM |
| COc1cc2c(cc1OC)C1C=NC(C2)c2cc(OC)c(OC)cc21 (stereo not drawn) | inactive: > 100 µM |
| Cc1ccc(C2=CC(=O)/C(=C\C(=O)c3ccc(Cl)cc3)O2)cc1 | inactive: 50.7 µM |
| CC12ON=C(c3ccccc3)N1C=CN1C(c3ccccc3)=NOC12 (stereo not drawn) | inactive: > 100 µM |
| CC(=O)OCC1OC(n2cccnc2=O)C(OC(C)=O)C1OC(C)=O (stereo not drawn) | inactive: > 100 µM |
| Nc1ncc(N)c(NCC2(CO)CC(CCc3ccccc3)C2)n1 (stereo not drawn) | inactive: 14.6 µM |
| C=C(C)[C@H]1C[C@@H]2O[C@@](O)(/C(C)=C\C(=O)/C=C(/C)C[C@H]3OC(=O)[C@@]24O[C@H]34)[C@@H]1O | inactive: > 100 µM |
| COC/C=C\[C@]1(O)CCCC[C@@H]1CC(OC)OC | inactive: > 100 µM |
| COc1ccc(/C=N/N=C(\N)NO)c(Cl)c1O | inactive: 10.4 µM |
| CC1=NN(c2cccc(Cl)c2)C2(SCC(=O)N2c2nc3ccccc3s2)/C1=C\c1ccc(N(C)C)cc1 (stereo not drawn) | inactive: > 100 µM |
| COc1ccc(C2S/C(=C\c3ccccc3)C(=O)N2NC(=O)Cc2ccccc2)cc1 (stereo not drawn) | inactive: > 100 µM |
| COc1ccc(/C=C/C(=O)Oc2ccccc2OC)cc1 | inactive: > 63.2 µM |
| COc1cc(COC(=O)N(CC(=O)O)c2ccccc2)c([N+](=O)[O-])cc1OC | inactive: > 100 µM |
| Cc1cccc(NC(=S)Nc2ccc([N+](=O)[O-])cc2)n1 | inactive: > 100 µM |
| COc1cccc2c(=O)oc(-c3ccc(C(C)(C)C)cc3)nc12 | inactive: > 100 µM |

| SMILES | GI50 |
| --- | --- |
| O=C(Cc1nc2ccccc2o1)C(=O)Nc1cccc(Cl)c1 | inactive: > 100 µM |
| Cc1ccc(S(=O)(=O)N(CC(O)COc2ccccc2)c2ccc(F)cc2F)cc1 (stereo not drawn) | inactive: 22.6 µM |
| Cc1cccnc1N/C=C1\C(=O)NC(=O)N(C)C1=O | inactive: > 100 µM |
| NC(=O)C(=O)C1CCC2=C(Sc3ccccc3N2)C1=O (stereo not drawn) | inactive: > 100 µM |
| COc1ccc(-c2cc(-c3ccco3)c(C#N)c(=S)n2C2OC(COC(C)=O)C(OC(C)=O)C(OC(C)=O)C2OC(C)=O)cc1 (stereo not drawn) | inactive: 13.5 µM |
| CCOC(=O)/C(C)=C\[C@@]1(C)O[C@@H](C)[C@@](C)(OC(C)=O)[C@@H]1OC(C)=O | inactive: 65.3 µM |
| Cc1c(/C=C2\CC/C(=C\c3[nH]c(C(=O)OC(C)(C)C)c(C)c3C)C2=O)[nH]c(C(=O)OC(C)(C)C)c1C | inactive: > 100 µM |
| CN(C)c1cc2ccccc2oc1=O | inactive: > 100 µM |
| O=C(c1ccc(Cl)cc1)N(C(=S)OC12CC3CC(CC(C3)C1)C2)c1ccccc1 | inactive: 43.1 µM |
| N#Cc1nc(C2CCC2)oc1N | inactive: > 100 µM |
| Cc1cc(Br)cc(C)c1NC(=O)C(=O)C(C(=O)c1ccc(Cl)c(Cl)c1)C1OC(=O)c2ccccc21 (stereo not drawn) | inactive: > 100 µM |
| CC(CO)C1=CC(C#CCOCc2ccccc2)N(C(=O)Oc2ccccc2)c2ccccc21 (stereo not drawn) | inactive: 39.9 µM |
| CN1C(c2ccccc2)CC(=NO)CC1c1ccccc1 (stereo not drawn) | inactive: 43.8 µM |
| COc1cccc2c1C(=O)c1c(O)c3c(c(O)c1C2=O)C[C@@](O)(/C(C)=N\O)C[C@@H]3OC1CC(N)C(O)C(C)O1 (stereo partly drawn) | inactive: 3.67 µM |
| N#CCc1ccc(C(C#N)/C(CCCC(=O)Nc2cccc([N+](=O)[O-])c2)=N/NC(N)=S)cc1 (stereo not drawn) | inactive: > 100 µM |
| CCCCC1CCCCCCc2[nH]c(/C=C3\N=C(c4ccc[nH]4)C=C3OC)cc21 (stereo not drawn) | active: 0.0361 µM |
| Cc1ccccc1C(O)(c1nccn1C)c1nccn1C | inactive: > 100 µM |
| COC(=O)/N=[N+](\[O-])C(c1ccc(OC)cc1)C1CCCCC1 (stereo not drawn) | inactive: 1.8 µM |
| CCCCCCCCCCCCC(O)[C@H]1CC[C@H](C(O)CCCCCC(=O)CCCCC2CC(C(C)=O)C(=O)O2)O1 (stereo partly drawn) | inactive: 14.8 µM |
| CC1SCc2nc3ccccc3n21 (stereo not drawn) | inactive: > 100 µM |
| COc1ccc(-c2cc(-c3ccc(Nc4ccnc5cc(C(F)(F)F)ccc45)cc3)nc(N)c2C#N)cc1 | inactive: 32.7 µM |

| SMILES | GI50 |
| --- | --- |
| CCSC12OC3(CCCCCN3C1=O)C1C(=O)N(c3ccccc3)C(=O)C12 (stereo not drawn) | inactive: > 100 µM |
| [N-]=[N+]=NC(c1cn(C2CC(O)C(CO)O2)c(=O)[nH]c1=O)C(Cl)I (stereo not drawn) | inactive: > 100 µM |
| COC(=O)[C@H](Cc1ccccc1)NC(=O)N(CCN(CCC#N)C(=O)N[C@H](C(=O)OC)C(C)C)c1ccccc1 | inactive: > 100 µM |
| CC(CCOc1ccc2ccc(=O)oc2c1)C1=CC(=O)C(C)(C)O1 (stereo not drawn) | inactive: 2.86 µM |
| CC(=O)OCC1OC(N2C(S)=C(C#N)C(c3ccco3)C(C(C)=O)=C2c2ccccc2)C(OC(C)=O)C(OC(C)=O)C1OC(C)=O (stereo not drawn) | inactive: 72.1 µM |
| COc1cc(/C=C2\N=C(c3ccccc3)N(c3ccc(C(=O)c4ccccc4)cc3N3C(=O)/C(=C/c4ccc(O)c(OC)c4)N=C3c3ccccc3)C2=O)ccc1O | inactive: 20.3 µM |
| CC(C)NC(NC(C)C)=C(S(=O)(=O)C(F)(F)C(F)(F)C(F)(F)C(F)(F)F)S(=O)(=O)C(F)(F)C(F)(F)C(F)(F)C(F)(F)F | inactive: > 100 µM |
| CN(C)CCOc1ccc(I)cc1Cc1ccccc1 | inactive: 13.9 µM |
| CCOC(=O)C1=C(C)N(NC(=O)Nc2ccccc2)C2(N)N(NC(=O)Nc3ccccc3)C(C)=C(C(=O)OCC)C12C(=O)OCC (stereo not drawn) | inactive: 63.8 µM |
| CN1CCN(c2ccc3[nH]c(-c4ccc5[nH]c(-c6ccc(N(C)CCCl)cc6)nc5c4)nc3c2)CC1 | active: 0.231 µM |
| O=C1c2c(ccc3c2CCCC3)CC1Cc1ccc2c(c1)CCCC2 (stereo not drawn) | inactive: > 100 µM |
| Cc1c2cccc-2c2cc(O)c3ccccc3c2n1-c1ccc(N(C)C)cc1 | inactive: 10.8 µM |
| Fc1ccc(-c2sc(-c3cccs3)cc2Cc2cccs2)cc1 | inactive: > 100 µM |
| O=C1c2c(c3c4ccccc4n4c3c3c2c2ccccc2n3C/C=C\C4)C(=O)N1Cc1ccccc1 | inactive: > 100 µM |
| CC(=O)OC1C(O)C(C)OC(OC(=O)C2CCC3C(C2)OC2(CC(OC(=O)/C=C/c4ccccc4)C(C)CO2)C32CO2)C1OC1OC(C)C(O)C(O)C1O (stereo not drawn) | active: 0.044 µM |
| COc1c(-c2nc3ccc(N4CCN(C)CC4)cc3[nH]2)cc(OC)c2[nH]c(CO)nc12 | inactive: 95.5 µM |
| CCc1cccc(C(C)C)c1NC(=O)C(=O)C1C(=O)Nc2ccccc2[S+]1[O-] (stereo not drawn) | inactive: > 100 µM |
| Nc1nc2c(ncn2CCCC(c2ccccc2)P(=O)(O)O)c(=O)[nH]1 (stereo not drawn) | inactive: > 100 µM |
| O.O=C([O-])c1ccccc1Nc1ccccc1C(=O)[O-].[Zn+2] | inactive: 20.9 µM |
| C=CCSSCC=C | inactive: > 100 µM |
| Clc1ccc(-c2nnc(-c3nsc4ccccc34)o2)cc1 | inactive: 44.4 µM |

— ChEMBL document CHEMBL1201862, “PubChem BioAssay data set” (2004)
